Source: PubChem BioAssay AID761 (NMMLSC, 2007)
Among all 190,000 compounds or so, about 400 (0.21%) were called active. Inconclusive means that the source gave no clear call. Such entries were picked first, then a sample of the others.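 Rule for the calls: active = percent activity GTP binding at least 20 points away from the 100% baseline, either down as inhibitor or up as activator; inconclusive = compound flagged as likely green fluorescent from well-wide comparison; inactive = the rest.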

biological target: Cell division control protein 42 homolog (Homo sapiens) (UniProt P60953); assay: wildtype Cdc42 fluorescent GTP binding changes, either direction – biochemical, multiplex bead flow cytometry, Bodipy-GTP, primary screen (AID 761); conditions: GST-Cdc42 beads, at 10 µM, actives lie on both sides;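 note: median bead fluorescence of bound Bodipy-FL-GTP at 100 nM; 0% = excess unlabeled GTP control and 100% = no compound control; below 100% means less GTP binding so inhibitor and above means activator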
Chain of UniProt P60953 (P60953 whole entry, looked up): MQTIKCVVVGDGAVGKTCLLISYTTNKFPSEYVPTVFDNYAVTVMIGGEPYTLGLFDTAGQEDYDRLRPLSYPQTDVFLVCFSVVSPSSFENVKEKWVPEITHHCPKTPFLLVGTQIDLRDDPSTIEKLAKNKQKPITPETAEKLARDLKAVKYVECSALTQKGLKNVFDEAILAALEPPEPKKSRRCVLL

Structure (SMILES)	percent activity (GTP binding)
CCOC(=O)C(CC)(CCC(=O)O)c1csc(N)n1 (stereo not drawn)	inconclusive: 107%
Cc1ccc(S(=O)(=O)N(CC(=O)N(C)C)c2cccc([N+](=O)[O-])c2)cc1	inconclusive: 93%
CC1CCCCC1NC(=O)COC(=O)CNC(=O)c1cccc(F)c1 (stereo not drawn)	inactive: 91%
CC(C)(C)c1ccc(OCCNC(=O)Cc2ccc(F)cc2)cc1	inactive: 102%
CCN=c1scc(-c2ccc3c(c2)NC(=O)CO3)n1N=C1CCCC1	inconclusive: 105%
CCn1cc(C(=O)OCC(=O)NCc2ccccc2Cl)c(=O)c2ccc(C)nc21	inactive: 95%
CCOC(=O)N1CCN(C(c2cccc(OC)c2)c2sc3nc(C)nn3c2O)CC1 (stereo not drawn)	inconclusive: 100%
CCOc1ccc(-c2nnc(-c3cccs3)o2)cc1OCC	inconclusive: 95%
CCN1CCN(C(c2cc(OC)c(OC)c(OC)c2)c2nnnn2C(C)C)CC1 (stereo not drawn)	inconclusive: 101%
CCOC(=O)C1=NN(c2ccc(C)cc2)CC1C(=O)OC (stereo not drawn)	inactive: 118%
COCCn1nnnc1CN(Cc1ccco1)Cc1cc2cc3c(cc2[nH]c1=O)OCO3	inconclusive: 107%
COc1ccccc1CNC(=O)C(=O)NCC(c1ccco1)N1CCOCC1 (stereo not drawn)	inconclusive: 117%
CCn1c(SC2CCOC2=O)nnc1-c1ccc(Cl)cc1 (stereo not drawn)	inactive: 95%
O=C(C(Cl)Cl)N1c2ccccc2OCC1c1ccccc1 (stereo not drawn)	inactive: 99%
CCC(C(=O)Nc1ccccc1C(=O)N1CCOCC1)N1C(=O)c2ccccc2C1=O (stereo not drawn)	inconclusive: 92%
CCCN1C2CCCC1CC(NC(=S)Nc1cc(C)cc(C)c1)C2 (stereo not drawn)	inactive: 101%
CCn1c(SCc2ccc(C(=O)Nc3nccs3)cc2)nnc1-c1ccc(N)cc1	inconclusive: 94%
COc1ccc(C(=O)N2CCCCC2)cc1S(=O)(=O)Nc1ccccc1	inconclusive: 97%
CCCc1nc2oc3c(=O)[nH]cnc3c2c2c1CCCC2	inactive: 82%
CCn1nc(C)c(CN2CCN(Cc3ccc(OC)c(C)c3C)C(CCO)C2)c1C (stereo not drawn)	inactive: 97%
CC(C)(C)c1ccc2c(c1)C(=O)c1ccccc1C2=O	inconclusive: 96%
CCOc1ccc(/C=C2\SC(N3CCc4ccccc4C3)=NC2=O)cc1	inconclusive: 82%
COCCNc1nnnc2c1sc1nc(N3CCOCC3)c3c(c12)CCCC3	inactive: 81%
O=C(CSc1nnc(Cc2ccccc2)o1)c1ccccc1	inconclusive: 92%

Structure (SMILES)	percent activity (GTP binding)
CCOc1ccc(NC(=S)N(CCN2CCOCC2)Cc2cc3cc4c(cc3[nH]c2=O)OCO4)cc1	inconclusive: 92%
COc1ccc(CCNC(=O)c2ccc(CSc3ccccc3)o2)cc1	inconclusive: 88%
CC/C(=N\Nc1ccccc1[N+](=O)[O-])c1ccc(O)cc1	inconclusive: 90%
N#Cc1c(N)nc2c(c1-c1ccncc1)CCCC2	inconclusive: 111%
COc1ccc2nc3ccccc3nc2c1NC(=O)c1ccc(Cl)cc1Cl	inactive: 105%
COc1cccc(/C=N/Nc2nn3cnnc3c3ccccc23)c1O	active: 58%
COc1ccc(OC)c(NC(=S)N2CCN(c3ccccn3)CC2)c1	inconclusive: 87%
COC(=O)C1=C(C)NC(=O)/C1=C\c1cc(C)n(-c2c(C)cccc2C)c1C	active: 121% [activator]
O=C(Nc1ccc(N2CCN(C(=O)c3cccs3)CC2)cc1)c1cccnc1Cl	inconclusive: 97%
CCCOC(=O)c1ccc(NC(=O)Oc2ccccc2)cc1	inconclusive: 95%
O=C1C(Cl)=C(N2CCN(Cc3ccccc3)CC2)C(=O)N1Cc1ccccc1	inconclusive: 97%
Cc1ccccc1OCCn1cc(C(=O)O)c2ccccc21	active: 123% [activator]
Cc1cc(C)nc(/N=C(\N)Nc2ccc(F)c([N+](=O)[O-])c2)n1	inactive: 101%
COc1ccc(N/N=C(\C#N)C(=N)N2CCOCC2)cc1	inconclusive: 93%
CCOc1ccc(-n2c(=O)c3sccc3n(Cc3cccc([N+](=O)[O-])c3)c2=O)cc1	inactive: 99%
Cc1ccc(NC(=O)c2noc(C(C)C)c2[N+](=O)[O-])cc1	inactive: 97%
CC1=CC(=C(C#N)C#N)c2ccccc2N1C	inconclusive: 92%
COc1ccc(N2CCN(C(=O)Cn3cncn3)CC2)cc1	inconclusive: 94%
O=C(c1c[nH]c2ccccc12)N1CCOCC1	inconclusive: 93%
OCC1(Cc2ccc(Cl)cc2)CCN(CCCc2ccccc2)CC1	inconclusive: 97%
O=C(Nc1cnn(Cc2c(Cl)cccc2Cl)c1)c1ccc([N+](=O)[O-])cc1	inconclusive: 93%
CCC(C)c1ccc(NC(=O)C/C(C)=N/NC(=O)c2cnccn2)cc1 (stereo not drawn)	inactive: 92%
Cc1cc2[nH]c3c(c[n+](C)c4ccccc34)c2cc1C	inactive: 85%
COc1ccc(N=c2oc3c(OC)cccc3cc2C(=O)NCc2ccco2)cc1OC	inconclusive: 96%

Structure (SMILES)	percent activity (GTP binding)
COc1ccccc1N1CCN(C(=O)c2ccc(Cl)c(S(=O)(=O)N3CCCC3)c2)CC1	inactive: 100%
CCCCn1cnc2c(sc3nc4c(cc32)CSC(C)(C)C4)c1=O	inconclusive: 102%
N#Cc1cc(C#N)c(N2CCN(c3cccc(Cl)n3)CC2)nc1N	inconclusive: 84%
CN(C)c1ccc(-c2nn3c(-c4ccc(Cl)cc4Cl)nnc3s2)cc1	inconclusive: 105%
N#CCc1c(C#N)c(N)nc(N2CCN(S(=O)(=O)c3ccccc3)CC2)c1C#N	inactive: 95%
COc1ccc(/C=N/NC(=O)c2cccc(O)c2)cc1Cn1nc(C)c([N+](=O)[O-])c1C	inconclusive: 88%
O=C(c1ccc(S(=O)(=O)c2ccccc2Cl)c([N+](=O)[O-])c1)N1CCCCCC1	inactive: 104%
N/C(CSc1nc(-c2ccccc2)c(-c2ccccc2)o1)=N\O	inconclusive: 87%
Cc1ccc(-n2[nH]c(C)c(C=Nc3ccc(S(=O)(=O)Nc4nccs4)cc3)c2=O)cc1C	inconclusive: 93%
COCc1nnc(NC(=O)CSc2ccc(C)cc2)s1	inconclusive: 114%
CCc1ccc(N(CC(=O)NCc2ccc(F)cc2)C(=O)c2csnn2)cc1	inconclusive: 95%
Cc1ccc(NS(=O)(=O)c2cc(NC(=O)c3ccc4c(c3)NC(=O)CS4)ccc2Cl)c(C)c1	inactive: 113%
Nc1cc(=O)[nH]n1C1CCCC1	inconclusive: 95%
NS(=O)(=O)c1ccc(Nc2nc3ccccc3nc2NS(=O)(=O)c2cccc([N+](=O)[O-])c2)cc1	inactive: 94%
COc1ccc(CC2(CO)CCN(Cc3ccc(NC(C)=O)cc3)CC2)cc1	inconclusive: 98%
CC(=O)c1c(C)[nH]c(C(=O)OCc2ccc(F)cc2Cl)c1C	inconclusive: 99%
Cc1nc(N2CCN(c3ccccn3)CC2)c2c(C)c(C(=O)Nc3ccc(F)cc3)sc2n1	inconclusive: 89%
Cn1cccc1/C=C1\SC(=S)N(NC(=O)c2ccccc2Cl)C1=O	inactive: 88%
Cc1oc2cc(OCC(=O)O)ccc2c(=O)c1Oc1ccccc1	inconclusive: 103%
O=C1c2[nH]nc(-c3ccccc3O)c2C(c2cccc(Cl)c2)N1CC1CCCO1 (stereo not drawn)	inconclusive: 95%
O=C(Nc1ccccc1)Nc1cccc2nsnc12	inconclusive: 95%
O=C(NCCC1=CCCCC1)Nc1ccc2nsnc2c1	inactive: 97%
NC(=O)NC(c1ccccc1)c1ccccc1F (stereo not drawn)	inconclusive: 104%
Cc1ccc(Cl)cc1N1CCN(C(=O)CN(C2CCCCC2)S(C)(=O)=O)CC1	inactive: 103%

Structure (SMILES)	percent activity (GTP binding)
O=C(O)C1CCCCC1C(=O)NCc1ccccc1 (stereo not drawn)	inconclusive: 106%
O=S(=O)(c1ccccc1)N(CC(O)Cn1c2ccccc2c2ccccc21)c1ccccc1 (stereo not drawn)	inconclusive: 89%
O=C(O)c1cccc(S(=O)(=O)Nc2ccccc2Cl)c1	inactive: 101%
O=C(Cc1ccc(Br)cc1)OCC(=O)c1ccc2c(c1)OCCO2	inconclusive: 94%
C#CCOc1ccc(/C=N/NC(=O)c2cccnc2)cc1OCC	inconclusive: 86%
CC(C)N(C(=O)Cn1cc(SCC(=O)NCc2ccco2)c2ccccc21)C(C)C	inconclusive: 93%
NC(=O)c1ccc(NCCCN2CCOCC2)c([N+](=O)[O-])c1	inactive: 97%
O=C(CC1Sc2ccccc2NC1=O)Nc1ccccc1[N+](=O)[O-] (stereo not drawn)	inconclusive: 99%
COc1cc(OC)nc(Oc2ccccc2C(=O)Oc2ccc(F)cc2Cl)n1	inconclusive: 102%
Cc1ccc(C(=O)c2ccccc2C(=O)O)c(O)c1	inactive: 102%
Nc1nc(N2CCCCC2)nc(N2CCCCC2)n1	inconclusive: 109%
O=C(NC1(C(=O)NC2CCCC2)CCCCC1)c1ccc2c(c1)OCO2	inactive: 103%
CCOC(=O)c1cccc(C(=O)Nc2nc3ccc(OC)cc3s2)n1	inactive: 95%
O=C(O)c1nn(-c2ccccc2)c(-c2ccccc2)c1C(=O)c1ccccc1	inconclusive: 94%
C=CCN(CC=C)C(=O)c1ccc(OC2CCN(Cc3ccccn3)CC2)cc1	inconclusive: 96%
O=C(c1ccccc1)c1ccc(OCCCN2CCCC2)cc1	inconclusive: 102%
N#Cc1cccc(NC(=O)CSc2nnc(-c3n[nH]c4ccccc34)o2)c1	inactive: 92%
COC(=O)c1sc2ncccc2c1OCc1ccc(Cl)cc1Cl	inconclusive: 94%
O=C(Cn1cnc2ccccc2c1=O)c1c[nH]c2ccccc12	inconclusive: 104%
CCOC(=O)Cn1nnnc1C(C(C)C)N(Cc1cccs1)Cc1cc2cc(C)ccc2[nH]c1=O (stereo not drawn)	active: 75%
Cc1ccc(C(=O)Nn2c(O)c(C=C3N=c4ccccc4=N3)sc2=S)cc1	active: 73%
